Assay [1] addresses pre-existing anti-VH ADA in human serum. Description: ADA confirmation assay (MSD): 10 ug/mL test material against labelled DOM1H-131-206, mean of 10 sera.
Assay [2] has the same target. Description: ADA confirmation assay (MSD): 10 ug/mL test material against labelled DOM1H-131-206; share of 10 ADA-positive sera with binding.
Assay [3] has as its target pre-existing anti-V kappa (VL) ADA in human serum. Description: '735 ADA confirmation assay (MSD): 10 ug/mL test material against labelled '735, mean of 7 donor sera.

These results are taken from patent publication US20250136721A1.

B1: DOM1h-574-208 - VL fusion (protein)
chain: EVQLLESGGGLVQPGGSLRLSCAASGFTFDKYSMGWVRQAPGKGLEWVSQISDTADRTYYAH[no letters for about 20 residues]MNSLRAEDTAVYYCAIYTGRWVPFEYWGQGTLVTVSSASTDIQMTQSPSSLSASVGDRVTITCRASRPIGTTLSWYQQKPGKAPKLLILWNSRLQSGVPSRFSGSGSGTDFTLTISSLQPEDFATYYCAQAGTHPTTFGQGTKVEIKR
On to B1, for which the Mean % inhibition of signal in confirmation assay in assay [1] was found to be 4.43%.

B2: DOM1h-574-208 (protein)
VH: EVQLLESGGGLVQPGGSLRLSCAASGFTFDKYSMGWVRQAPGKGLEWVSQISDTADRTYYAH[no letters for about 20 residues]MNSLRAEDTAVYYCAIYTGRWVPFEYWGQGTLVTVSS
For B2, in assay [1], the Mean % inhibition of signal in confirmation assay was found to be 94.1%. Besides, the % subjects with ADA binding (10 subjects) (% of subjects) in assay [2] turned out to be 100.

B3: mAb-VL '735 (bispecific antibody, human IgG1, kappa)
heavy: QVQLVQSGAEVKKPGSSVKVSCKASGFYIKDTYMHWVRQAPGQGLEWMGTIDPANGNTKYVPKFQGRVTITADESTSTAYMELSSLRSEDTAVYYCARSIYDDYHVDDYYAMDYWGQGTLVTVSS[no letters for human IgG1 constant region]GSTVAAPSGSTVAAPSGSDIQMTQSPSSLSASVGDRVTITCRASRPISDWLHWYQQKPGKAPKLLIAWASSLQGGVPSRFSGSGSGTDFTLTISSLQPEDFATYYCQQEGWGPPTFGQGTKVEIKR
light: DIVMTQSPLSLPVTPGEPASISCRSSQNIVHINGNTYLEWYLQKPGQSPRLLIYKISDRFSGVPDRFSGSGSGTDFTLKISRVEADDVGIYYCFQGSHVPWTFGQGTKLEIKRTVAAPSVFIFPPSDEQLKSGTASVVCLLNNFYPREAKVQWKVDNALQSGNSQESVTEQDSKDSTYSLSSTLTLSKADYEKHKVYACEVTHQGLSSPVTKSFNRGEC
Turning to B3, in assay [3], the % inhibition in confirmation assay came out at 74.9%.

B4: mAb-VL 15014 (bispecific antibody, human IgG1, kappa)
heavy: QVTLRESGPALVKPTQTLTLTCTFSGFSLSTSGMGVSWIRQPPGKGLEWLAHIYWDDDKRYNPSLKSRLTISKDTSRNQVVLTMTNMDPVDTATYYCARRETVFYWYFDVWGRGTLVTVSS[no letters for human IgG1 constant region]GSTVAAPSTDIQMTQSPSSLSASVGDRVTITCRASRPISDWLHWYQQKPGKAPKLLIAWASSLQGGVPSRFSGSGSGTDFTLTISSLQPEDFATYYCQQEGWGPPTFGQGTKVEIKRAAA
light: DIVLTQSPSSLSASVGDRVTITCKASQSVDYDGDSYMNWYQQKPGKAPKLLIYAASNLESGIPSRFSGSGSGTDFTFTISSLQPEDIATYYCQQSNEDPPTFGQGTKVEIKRTVAAPSVFIFPPSDEQLKSGTASVVCLLNNFYPREAKVQWKVDNALQSGNSQESVTEQDSKDSTYSLSSTLTLSKADYEKHKVYACEVTHQGLSSPVTKSFNRGEC
As to B4, in assay [3], the % inhibition in confirmation assay is -4.4%.

B5: mAb-VL 15019 (bispecific antibody, human IgG1, kappa)
heavy: QVTLRESGPALVKPTQTLTLTCTFSGFSLSTSGMGVSWIRQPPGKGLEWLAHIYWDDDKRYNPSLKSRLTISKDTSRNQVVLTMTNMDPVDTATYYCARRETVFYWYFDVWGRGTLVTVSS[no letters for human IgG1 constant region]GSTVAAPSTDIQMTQSPSSLSASVGDRVTITCRASRPISDWLHWYQQKPGKAPKLLIAWASSLQGGVPSRFSGSGSGTDFTLTISSLQPEDFATYYCQQEGWGPPTFGQGTKVEIKRT
light: DIVLTQSPSSLSASVGDRVTITCKASQSVDYDGDSYMNWYQQKPGKAPKLLIYAASNLESGIPSRFSGSGSGTDFTFTISSLQPEDIATYYCQQSNEDPPTFGQGTKVEIKRTVAAPSVFIFPPSDEQLKSGTASVVCLLNNFYPREAKVQWKVDNALQSGNSQESVTEQDSKDSTYSLSSTLTLSKADYEKHKVYACEVTHQGLSSPVTKSFNRGEC
On to B5, for which the % inhibition in confirmation assay in assay [3] was 12.9%.

B6: mAb-VL 15020 (bispecific antibody, human IgG1, kappa)
heavy: QVTLRESGPALVKPTQTLTLTCTFSGFSLSTSGMGVSWIRQPPGKGLEWLAHIYWDDDKRYNPSLKSRLTISKDTSRNQVVLTMTNMDPVDTATYYCARRETVFYWYFDVWGRGTLVTVSS[no letters for human IgG1 constant region]GSTVAAPSTDIQMTQSPSSLSASVGDRVTITCRASRPISDWLHWYQQKPGKAPKLLIAWASSLQGGVPSRFSGSGSGTDFTLTISSLQPEDFATYYCQQEGWGPPTFGQGTKVEIKRTV
light: DIVLTQSPSSLSASVGDRVTITCKASQSVDYDGDSYMNWYQQKPGKAPKLLIYAASNLESGIPSRFSGSGSGTDFTFTISSLQPEDIATYYCQQSNEDPPTFGQGTKVEIKRTVAAPSVFIFPPSDEQLKSGTASVVCLLNNFYPREAKVQWKVDNALQSGNSQESVTEQDSKDSTYSLSSTLTLSKADYEKHKVYACEVTHQGLSSPVTKSFNRGEC
For B6, the % inhibition in confirmation assay in assay [3] came to 8.53%.

B7: mAb-VL 15021 (bispecific antibody, human IgG1, kappa)
heavy: WIRQPPGKGLEWLAHIYWDDDKRYNPSLKSRLTISKDTSRNQVVLTMTNMDPVDTATYYCARRETVFYWYFDVWGRGTLVTVSS[no letters for human IgG1 constant region]GSTVAAPSTDIQMTQSPSSLSASVGDRVTITCRASRPISDWLHWYQQKPGKAPKLLIAWASSLQGGVPSRFSGSGSGTDFTLTISSLQPEDFATYYCQQEGWGPPTFGQGTKVEIK
light: DIVLTQSPSSLSASVGDRVTITCKASQSVDYDGDSYMNWYQQKPGKAPKLLIYAASNLESGIPSRFSGSGSGTDFTFTISSLQPEDIATYYCQQSNEDPPTFGQGTKVEIKRTVAAPSVFIFPPSDEQLKSGTASVVCLLNNFYPREAKVQWKVDNALQSGNSQESVTEQDSKDSTYSLSSTLTLSKADYEKHKVYACEVTHQGLSSPVTKSFNRGEC
In the case of B7, the % inhibition in confirmation assay in assay [3] is 20.1%.
